In all, about 420,000 compounds went through this assay and about 50,000 (12%) were called active. Inconclusive means that the source gave no clear call. Such entries were picked first, then a sample of the others. Calls come from the whole dose curve; as a rule, active = well fitted inhibition curve with a large enough effect; inconclusive = small, poorly fitted or top-dose-only effect; inactive = flat fitted curve, though single readings scatter. Potencies of inconclusive entries are left out as doubtful fits.
Assay: qHTS for Inhibitors of human tyrosyl-DNA phosphodiesterase 1 (TDP1): qHTS in cells in presence of CPT; note: nearly all actives have a fitted effect of over 55% in size
Conditions: chicken DT40 Tdp1-/-;hTDP1 cells + 20 nM CPT, ATP luminescence, 48 h; activity change, negative = growth inhibition: at 46.2 µM (top of the series)
How it was run: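 Cell growth measured by CellTiter-Glo luminescence after a minimum 48 h, 37 C compound exposure with 20 nM CPT in Tdp1-knockout DT40 cells stably expressing hTDP1, seeded 400/well; qHTS titration format.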
% is set by controls: 0 for no effect and ±100 for the full control effect; potency is the fitted concentration of half-maximal effect; tags give direction and shape of the fitted curve.

SMILES | Potency | activity change, negative = growth inhibition
Cc1cc(C(C)(C)C)cc(C)c1C[n+]1ccc2ccccc2c1 | active: 0.411 µM | –
CCOC(=O)c1ccc2ncc(C(=O)OCC)c(NCc3ccco3)c2c1 | active: 14.6 µM | –
CCCCNC(=O)COCc1cc(-c2ccc3c(c2)OCO3)on1 | – | inconclusive: -32.9% [inhibitor]
O=C(NC1CCCCCC1)c1ccc2nc3cc(Cl)ccc3c(=O)n2c1 | inconclusive [inhibitor, full curve, poor fit] | –
CN(C)C(=O)c1ccc(-c2ccc3ncnc(NCc4ccccc4)c3c2)cc1 | inconclusive [inhibitor, single point] | –
O=C1CCC(C(=O)OCC(=O)N2N=C3/C(=C\c4ccccc4)CCCC3C2c2ccccc2)N1 (stereo not drawn) | inconclusive [inhibitor, partial curve, poor fit] | –
COc1ccc(N(CC(=O)NC2CCCC2)C(=O)Cn2nnc(-c3ccc(F)cc3)n2)cc1 | inactive | –
COC(=O)CC/C(O)=C1\C(=O)CC(C)(C)CC1=Nc1ccccc1OC | active: 23.1 µM | –
COc1ccc2c(c1)c(C(=O)N/N=C/c1ccc(Br)cc1)c(C)n2C | active: 10.3 µM | –
CCOc1ccc(OCc2cccc(C(=O)Nc3ccc(CN4CCCCC4)cc3)c2)cc1 | active: 8.2 µM | –
O=C(Nc1cccc(Cl)c1)N(CCN1CCOCC1)Cc1cccc(Cl)c1 | inconclusive [inhibitor, single point] | –
Cc1ccc(S(=O)(=O)c2c(C(=O)c3ccccc3)cnc3cc4c(cc23)OCCO4)cc1 | inconclusive [inhibitor, single point] | –
CSc1ncc(Cl)c(C(=O)Nc2cccc3ccccc23)n1 | inconclusive [inhibitor, single point] | –
Cc1[nH]c2ccccc2c1C(c1c[nH]c2ccccc12)c1c(C)[nH]c2ccccc12 | inconclusive [inhibitor, single point] | –
CCOC(Cn1cc([N+](=O)[O-])c(=O)[nH]c1=O)OCC | inactive | –
Cn1cnc([N+](=O)[O-])c1Sc1nc(N)nc2c1ncn2C1CC(O)C(CO)O1 (stereo not drawn) | inconclusive [inhibitor, partial curve] | –
Cc1ccc(C2=CC(c3cccs3)n3nnnc3N2)cc1 (stereo not drawn) | inconclusive [inhibitor, single point] | –
COc1ccc(NC(=O)Nc2nc3c(s2)CCCC3)cc1 | inconclusive [inhibitor, single point] | –
CC(=O)c1cccc(S(=O)(=O)N2CCC(C(=O)N(C)Cc3ccc(Cl)s3)CC2)c1 | inconclusive [inhibitor, single point] | –
O=C(Cn1cncn1)N1CCN(c2ccc(F)cc2)CC1 | inactive | –
Cc1nn(C(C)CC(=O)O)c(C)c1Br (stereo not drawn) | inactive | –
CCOC(=O)c1ccccc1NC(=O)COC(=O)CCNS(=O)(=O)c1cccs1 | inactive | –
CCOc1ccc(N(CC)S(=O)(=O)N2CCCC(C(=O)Nc3cc(Cl)ccc3C)C2)cc1 (stereo not drawn) | active: 20.6 µM | –
Cc1ccc(C(=O)C=CNNC(=O)c2ccccc2)cc1 | inconclusive [inhibitor, single point] | –
Cc1ccc(Cl)cc1N1CCN(C(=O)C2CCN(S(=O)(=O)c3cccc4nonc34)CC2)CC1 | active: 11.6 µM | –

SMILES | Potency | activity change, negative = growth inhibition
CC(/C=N\NC(=O)c1ccc(C)nc1)=C\c1ccccc1 | inactive | –
COc1ccc(CCNS(=O)(=O)c2cccc([N+](=O)[O-])c2)cc1 | inactive | –
CN1CCN(C(=O)Cn2c(-c3cccs3)cc3cc(Cl)ccc32)CC1 | inconclusive [inhibitor, single point] | –
O=C(c1noc2c1CCCCC2)N1CCN(c2cccc(C(F)(F)F)c2)CC1 | inconclusive [inhibitor, single point] | –
CCc1c(C(=O)NC(C)C2CCCO2)csc1C (stereo not drawn) | inactive | –
CCOc1ccc(N(CCC#N)S(=O)(=O)c2ccc(OC)cc2)cc1 | inconclusive [inhibitor, single point] | –
C=CCSc1nnc2c(n1)-c1cccc3cccc-2c13 | inconclusive [inhibitor, single point] | –
CCC(CC)C(=O)N(C)c1c(C)nc2c(OCC(=O)C(C)(C)C)cccn12 | inactive | –
CCCCN(CC)CCCNC(=O)Cn1ncc2c3ccccc3n(Cc3ccccc3F)c2c1=O | active: 13 µM | –
COc1ccc(Cl)cc1N1Cc2ccccc2C1 | inactive | –
O=C(C1=C[C@@H](c2ccc3c(c2)OCO3)C[C@@H](OCc2ccc(CO)cc2)O1)N1CCOCC1 | inactive | –
CCOC(=O)C1CCN(CC(O)COc2ccc(C(C)(C)C)cc2)CC1 (stereo not drawn) | inconclusive [inhibitor, single point] | –
O=[N+]([O-])c1cccnc1N1CCN(Cc2ccc3c(c2)OCO3)CC1 | inconclusive [inhibitor, single point] | –
CCN(CC)CCNC(=O)c1ccc(CSc2nc3ccncc3n2Cc2cccc(F)c2)cc1 | inconclusive [inhibitor, single point] | –
COc1ccc(C2=C(SC)CC2=NC(C)(C)C)cc1 | inactive | –
Cc1ccc2c(/C=C/c3c[nH]c4ccccc34)ccnc2c1C | inactive | –
CC(C)(C)c1ccc(C(=O)N2CCC(c3nc(-c4ccc(S(=O)(=O)N5CCCC5)cc4)no3)CC2)cc1 | inconclusive [inhibitor, single point] | –
CCOC(=O)c1sc(NC(=O)CCCCCN2C(=O)c3cccc4cccc(c34)C2=O)nc1C | inconclusive [inhibitor, partial curve, poor fit] | –
O=C(CCNC(=O)c1ccc(Cl)cc1)Nc1cccc(S(=O)(=O)N2CCCCC2)c1 | active: 18.4 µM | –
O=C1CC(C(=O)N2CCN(c3ccccc3Cl)CC2)CN1Cc1ccccc1 (stereo not drawn) | inconclusive [inhibitor, single point] | –
COc1ccc(S(=O)(=O)N(C)[C@H]2C[C@H]3c4cc(-c5ccccc5)ccc4CCN3C(=O)[C@H]2[C@H](C)O)cc1 | inconclusive [inhibitor, single point] | –
Cn1cc(CN2CCCC(C(=O)c3cccs3)C2)c(-c2cccc(Cl)c2)n1 (stereo not drawn) | inconclusive [inhibitor, single point] | –
CCCNC(=O)c1nc(C)n(-c2ccc([N+](=O)[O-])cc2)n1 | inconclusive [inhibitor, partial curve, poor fit] | –
Cc1ccc(-c2nc(NCC3CCCO3)sc2C)cc1 (stereo not drawn) | inconclusive [inhibitor, partial curve] | –
N#Cc1ccc(-c2nc3c4ccccc4ccn3c2Cc2cccc(Cl)c2)cc1 | active: 16.4 µM | –

SMILES | Potency | activity change, negative = growth inhibition
Cc1ccc(-c2n[nH]c3c2C(c2cccc(O)c2)N(c2ccc(C(=O)O)cc2)C3=O)cc1 (stereo not drawn) | inactive | –
CCc1nc2ccc(C(=O)NCCOc3ccc(OC)cc3)cn2c1N(C)Cc1ccc(OC)cc1 | inconclusive [inhibitor, single point] | –
Cc1occc1C(=O)N1CCCC(Nc2ccc(F)c(F)c2)C1 (stereo not drawn) | inactive | –
COc1ccc(CN2CCN(Cc3ccccc3C(F)(F)F)CC2)c(OC)c1 | inconclusive [inhibitor, single point] | –
CCN(CC)S(=O)(=O)c1ccc(N2CCCC2)c(NC(=O)c2ccc([N+](=O)[O-])o2)c1 | active: 23.1 µM | –
Cc1ccnc(NC(=S)NC(=O)c2cccs2)c1 | inconclusive [inhibitor, single point] | –
Cc1onc(-c2c(Cl)cccc2Cl)c1C(=O)Nc1nccs1 | inconclusive [inhibitor, partial curve] | –
O=C(Nc1cccc(-c2csc(Nc3ccccc3)n2)c1)c1ccccc1 | inconclusive [inhibitor, single point] | –
CCOP(=O)(OCC)C(Nc1ccc([N+](=O)[O-])cc1)c1ccc(Cl)cc1 (stereo not drawn) | inactive | –
CCC[C@H]1COCCS(=O)(=O)N1Cc1cccc(F)c1 | inactive | –
CC1CCN(CCC(=O)Nc2ccc(F)c(F)c2)CC1 | inactive | –
COc1ccc(CNC(=O)C2CCCN(C(=O)N3CCOc4ccccc43)C2)cc1 (stereo not drawn) | inconclusive [inhibitor, single point] | –
CC(C)CC1NC(=O)N(Cc2cc(=O)n3ccsc3n2)C1=O (stereo not drawn) | inactive | –
COC(=O)c1c(NC(=O)CN2C(=O)NC(CCc3ccccc3)C2=O)sc2c1CCCCC2 (stereo not drawn) | inconclusive [inhibitor, single point] | –
CC(=O)Oc1cccc(N2C(=O)c3ccc(C(=O)Nc4cccnc4)cc3C2=O)c1 | inactive | –
CNS(=O)(=O)c1ccc(N2CCCC2=O)c([N+](=O)[O-])c1 | inactive | –
CCOc1ccc(N(C)c2ccc(/C=C3/SC(=S)NC3=O)cc2)cc1 | inconclusive [inhibitor, single point] | –
COc1ccccc1C1OC2=C(Nc3ccc([N+](=O)[O-])cc3N2)C1=O (stereo not drawn) | active: 13 µM | –
COc1ccc(C(CC(=O)c2ccccc2)CC(=O)c2ccccc2)cc1 | inconclusive [inhibitor, single point] | –
COc1cccc(N(CC(=O)N2CCOCC2)S(C)(=O)=O)c1 | inactive | –
CSc1ncccc1C(=O)N(C)CC(=O)Nc1ccc(Cl)c(C(F)(F)F)c1 | inconclusive [inhibitor, single point] | –
CSc1ccc(C2=CC(=O)C[C@H](c3ccc(F)cc3)C2)cc1 | inconclusive [inhibitor, single point] | –
O=C(C1CCN(c2nc(-c3ccccc3)nc3c2CCC3)CC1)N1CCC(O)CC1 | inconclusive [inhibitor, single point] | –

From PubChem BioAssay AID686979 (National Center for Advancing Translational Sciences (NCATS), 2013)
